Measurements: publication PMC10439943, “SCF^RMF mediates degradation of the meiosis-specific recombinase DMC1” (Nature Communications, 2023)
These are yes or no findings as the source states them, for the method shown. In cells and extracts the contact can be indirect. Some binding calls cover weakened binding; strength is not graded here. Tags and fused reporters may be left off the sequences shown.

B1: SUMO-HIS-DMC1 (natural protein, Arabidopsis thaliana, UniProt Q39009 1-344, looked up)
chain: MMASLKAEETSQMQLVEREENDEDEDLFEMIDKLIAQGINAGDVKKLQEAGIHTCNGLMMHTKKNLTGIKGLSEAKVDKICEAAEKIVNFGYMTGSDALIKRKSVVKITTGCQALDDLLGGGIETSAITEAFGEFRSGKTQLAHTLCVTTQLPTNMKGGNGKVAYIDTEGTFRPDRIVPIAERFGMDPGAVLDNIIYARAYTYEHQYNLLLGLAAKMSEEPFRILIVDSIIALFRVDFTGRGELADRQQKLAQMLSRLIKIAEEFNVAVYMTNQVIADPGGGMFISDPKKPAGGHVLAHAATIRLLFRKGKGDTRVCKVYDAPNLAEAEASFQITQGGIADAKD
notes: DMC1, meiosis-specific RecA-family recombinase, Arabidopsis thaliana, AGI At3G22880; CDS cloned into pSUMO (on pET28a); also called At3G22880; not shown: SUMO, N-terminal, kept; HIS, N-terminal, kept
B2: nYFP-RMF1 (protein, UniProt Q9M365 1-359)
chain: MKTRSSDAEGDSRGKMIAPVGEGNGGRKRKLVQSNEQKNDIQREEDGRAKRRIVQSSDQKNGKILRGIRGCVSPRCSAQTYQSRFSWYEQDIWTYISRFLDGKSLVKLGATNKWFYKIAMEDTVWRFACLRDLQVPVPFPVSSTWIKIYASAFDGSHSYLFRQKEKHIDWMRIGAFVLDSRTSLLTESLSGRLKFPREGTIERMLQSSGSCLINDIKSGIWIADLQLVRCPVCDLSTCDGTMQTLDARHIELFLSEGYKDGSWDYNLIGSHKLQKNASAACGAIFDLKHLKESSYSGILNLKSWTGESNDSQPKAVIAPHAVAVHTRLQENEGILVKYHTMKAGTDGDIVSIRISQQLL
B3: RMF2-nYFP (protein, UniProt Q9FGB8 1-355)
chain: MNTRSGDAEGDIRGKMIAPVRDGNGGQKRKLVQSNDIQRDEDGGAKRRIIQSSDQKNGKILRGIHGCVSPRCSAPTYQSRFSWYEQDIWTYITRFLDGKSLVKLGATNKWFYKIAMEDTVWRFACLRDLQVPETFPVSSTWIKIYASAFDGSHSYLFHQKEKHIDWMRLGAFVLDSRTSFLTESLSGRLKVPTEGTIEQMLQSSGSCLINDIKSGIWIADLQLLRCPLCDLSTCDGTMQTLDVRHIELFLSEGYKDGSWDYNLIGSHKLEKDASAACGAIFDLKHLKKSSSSGILNLKSWTGEADDSQPKAVIAPHAVAVHTRLQQNEGILVKYHTMKAGTDGDIVSIRISQQLL
B4: cLUC-RMF1 (protein, UniProt Q9M365 1-359)
chain: MKTRSSDAEGDSRGKMIAPVGEGNGGRKRKLVQSNEQKNDIQREEDGRAKRRIVQSSDQKNGKILRGIRGCVSPRCSAQTYQSRFSWYEQDIWTYISRFLDGKSLVKLGATNKWFYKIAMEDTVWRFACLRDLQVPVPFPVSSTWIKIYASAFDGSHSYLFRQKEKHIDWMRIGAFVLDSRTSLLTESLSGRLKFPREGTIERMLQSSGSCLINDIKSGIWIADLQLVRCPVCDLSTCDGTMQTLDARHIELFLSEGYKDGSWDYNLIGSHKLQKNASAACGAIFDLKHLKESSYSGILNLKSWTGESNDSQPKAVIAPHAVAVHTRLQENEGILVKYHTMKAGTDGDIVSIRISQQLL
B5: cLUC-RMF2 (protein, UniProt Q9FGB8 1-355)
chain: MNTRSGDAEGDIRGKMIAPVRDGNGGQKRKLVQSNDIQRDEDGGAKRRIIQSSDQKNGKILRGIHGCVSPRCSAPTYQSRFSWYEQDIWTYITRFLDGKSLVKLGATNKWFYKIAMEDTVWRFACLRDLQVPETFPVSSTWIKIYASAFDGSHSYLFHQKEKHIDWMRLGAFVLDSRTSFLTESLSGRLKVPTEGTIEQMLQSSGSCLINDIKSGIWIADLQLLRCPLCDLSTCDGTMQTLDVRHIELFLSEGYKDGSWDYNLIGSHKLEKDASAACGAIFDLKHLKKSSSSGILNLKSWTGEADDSQPKAVIAPHAVAVHTRLQQNEGILVKYHTMKAGTDGDIVSIRISQQLL

Columns and labels:
[1] = molecular target: T1, RMF1-GFP (Arabidopsis thaliana) (UniProt Q9M365); experiment: co-IP; tobacco leaves co-infiltrated with the two tagged proteins; lysis in 50 mM Tris-HCl pH 8.0, 100 mM NaCl, 10% glycerol, 0.5% NP-40; anti-FLAG (RMF1/2-FLAG) or anti-GFP (RMF1/2-GFP) magnetic beads, 4 °C overnight; western blot
T1 sequence: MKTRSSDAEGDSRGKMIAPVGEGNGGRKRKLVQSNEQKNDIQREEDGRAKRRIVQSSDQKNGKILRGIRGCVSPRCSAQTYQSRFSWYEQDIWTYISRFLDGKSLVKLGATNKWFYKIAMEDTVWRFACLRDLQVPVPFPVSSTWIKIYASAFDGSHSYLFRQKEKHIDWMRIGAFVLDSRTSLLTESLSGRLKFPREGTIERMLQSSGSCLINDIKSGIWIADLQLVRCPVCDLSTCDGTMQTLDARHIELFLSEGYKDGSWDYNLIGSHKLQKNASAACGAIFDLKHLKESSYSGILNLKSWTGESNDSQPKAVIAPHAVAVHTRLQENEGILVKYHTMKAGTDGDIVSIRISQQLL

[2] = molecular target: T2, RMF2-GFP (Arabidopsis thaliana) (UniProt Q9FGB8); experiment: as above
T2 sequence: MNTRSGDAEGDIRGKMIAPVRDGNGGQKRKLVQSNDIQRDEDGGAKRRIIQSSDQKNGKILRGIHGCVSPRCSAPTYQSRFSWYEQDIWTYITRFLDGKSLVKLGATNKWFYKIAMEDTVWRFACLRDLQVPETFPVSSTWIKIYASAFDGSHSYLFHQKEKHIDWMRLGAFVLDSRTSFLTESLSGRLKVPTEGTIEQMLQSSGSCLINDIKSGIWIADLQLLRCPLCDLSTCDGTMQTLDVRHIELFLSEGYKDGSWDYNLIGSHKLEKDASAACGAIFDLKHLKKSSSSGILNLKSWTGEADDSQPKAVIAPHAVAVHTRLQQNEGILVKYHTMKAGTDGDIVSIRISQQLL

[3] = molecular target: T3, DMC1-cYFP (Arabidopsis thaliana) (UniProt Q39009); experiment: split reporter; BiFC with nYFP and cYFP fusions in agro-infiltrated tobacco leaves, confocal microscopy after 36-48 h
T3 sequence: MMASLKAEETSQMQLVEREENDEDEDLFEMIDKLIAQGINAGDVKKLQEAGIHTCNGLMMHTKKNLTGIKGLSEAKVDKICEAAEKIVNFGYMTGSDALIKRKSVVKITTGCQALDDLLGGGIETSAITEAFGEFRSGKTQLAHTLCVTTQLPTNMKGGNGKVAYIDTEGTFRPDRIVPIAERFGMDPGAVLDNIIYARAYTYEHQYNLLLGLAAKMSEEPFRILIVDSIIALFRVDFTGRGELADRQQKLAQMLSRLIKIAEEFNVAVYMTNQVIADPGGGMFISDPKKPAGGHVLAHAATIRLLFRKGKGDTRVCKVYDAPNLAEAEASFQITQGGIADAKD

[4] = molecular target: T4, RAD51 fused to nLUC (Arabidopsis thaliana) (UniProt P94102); experiment: split reporter; split luciferase complementation (SLC) imaging in agro-infiltrated tobacco (N. benthamiana) leaves; nLUC and cLUC fusions; luciferin sprayed after 36-48 h
T4 sequence: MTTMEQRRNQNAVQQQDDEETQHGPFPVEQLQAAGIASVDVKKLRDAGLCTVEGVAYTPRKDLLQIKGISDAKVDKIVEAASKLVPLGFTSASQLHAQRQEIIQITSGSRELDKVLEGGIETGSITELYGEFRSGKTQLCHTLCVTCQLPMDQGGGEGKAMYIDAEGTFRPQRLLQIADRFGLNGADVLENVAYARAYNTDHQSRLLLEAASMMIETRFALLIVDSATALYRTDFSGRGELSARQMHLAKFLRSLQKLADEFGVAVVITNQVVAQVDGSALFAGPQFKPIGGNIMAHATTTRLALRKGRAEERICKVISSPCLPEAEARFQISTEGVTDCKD

[5] = molecular target: T5, nLUC-DMC1 (Arabidopsis thaliana) (UniProt Q39009); experiment: as above
T5 sequence: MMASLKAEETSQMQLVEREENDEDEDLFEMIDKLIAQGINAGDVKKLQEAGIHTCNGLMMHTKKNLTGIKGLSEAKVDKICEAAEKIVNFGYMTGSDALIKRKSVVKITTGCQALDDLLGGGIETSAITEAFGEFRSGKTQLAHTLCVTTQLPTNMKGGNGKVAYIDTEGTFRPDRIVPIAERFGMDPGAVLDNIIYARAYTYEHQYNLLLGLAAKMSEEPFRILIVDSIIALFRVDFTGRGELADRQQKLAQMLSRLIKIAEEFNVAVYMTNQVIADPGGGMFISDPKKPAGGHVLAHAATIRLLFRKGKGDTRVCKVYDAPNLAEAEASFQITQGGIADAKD

Binder	binding [3]	binding [4]	binding [5]	also measured
B1	–	–	–	binding [1]: binds; binding [2]: binds
B2	binds	–	–	–
B3	binds	–	–	–
B4	–	no binding	binds	–
B5	–	no binding	binds	–
